According to PubChem BioAssay AID540317 (National Center for Advancing Translational Sciences (NCATS), 2011):
Screen size: about 390,000 compounds; about 2,200 (0.56%) were called active. The shares of active, inactive and inconclusive entries below differ from those in the screen. The call rests on the fitted dose curve; in most records, active means well fitted inhibition curve with a large enough effect; inconclusive means small, poorly fitted or top-dose-only effect; inactive means no such curve, though single readings can be large or run the other way. Potencies of inconclusive entries are doubtful fits and often do not repeat.

Target: Chromobox protein homolog 1 (Homo sapiens) (UniProt P83916)
Assay: HTS for Inhibitors of HP1-beta Chromodomain Interactions with Methylated Histone Tails; further: nearly all actives have a fitted effect of over 70% in size
Details: AlphaScreen HP1-beta / biotin-H3K9me3 peptide binding; series mostly up to 114 µM; activity change, negative = inhibition: at the top concentration
Method in brief: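 AlphaScreen: HP1-beta (50 nM) preformed 30 min with biotin-H3(1-18)K9me3 peptide (50 nM) in PBS pH 7.4, 0.01% Tween-20. Compound added for 30 min at RT, then streptavidin donor/nickel chelate acceptor beads (10 ug/mL) for 30 min.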
Potency means the concentration at half of the fitted maximal effect; tags describe the fitted curve by direction and shape.

UniProt P83916, sequence (P83916 whole entry, looked up): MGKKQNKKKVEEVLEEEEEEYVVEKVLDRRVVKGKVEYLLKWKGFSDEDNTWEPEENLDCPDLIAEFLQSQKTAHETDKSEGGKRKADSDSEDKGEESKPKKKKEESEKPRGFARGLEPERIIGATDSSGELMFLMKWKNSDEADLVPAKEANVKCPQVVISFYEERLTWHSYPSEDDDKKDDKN

Row | SMILES | activity change, negative = inhibition | Potency
1 | Cc1cccc(N2CCN(C(=O)c3cc4cc(F)ccc4[nH]3)CC2)c1C | inactive: 11% | 
2 | COc1ccc(NC(=O)CSc2nnc(NC(=O)Nc3ccccc3)s2)cc1OC | inactive: 41.1% | 
3 | C/C(=N\Nc1ccccn1)c1ccc(S(=O)(=O)NCc2ccco2)cc1 |  | inconclusive: 17.8 µM [inhibitor, full curve, poor fit]
4 | O=C(CS(=O)(=O)c1ccc(Br)cc1)N1CCOCC1 |  | inconclusive: 89.1 µM [inhibitor, single point]
5 | COc1cc(OC)cc(C(=O)N2CCN(Cc3ccccc3C(F)(F)F)CC2)c1 |  | inconclusive: 50.1 µM [inhibitor, partial curve, poor fit]
6 | COc1ccc(NC2CCCN(C(=O)CCCn3cncn3)C2)cc1OC (centres undefined) | inactive: 22.1% | 
7 | Cc1cc(=O)[nH]c(SCC(=O)Nc2cccc3ccccc23)c1C#N | inactive: 22.1% | 
8 | COc1ccccc1N1CCN(CC(=O)c2ccc3ccn(C(C)=O)c3c2)CC1 | inactive: 41.5% | 
9 | Brc1ccc(C2=Nn3c(Cn4nnc5ccccc54)nnc3SC2)cc1 |  | inconclusive: 14.1 µM [inhibitor, single point]
10 | CCOC(=O)N1CCC(NCCNC(=O)c2cccs2)CC1 |  | inconclusive: 50.1 µM [inhibitor, partial curve]
11 | Cc1cccc(N=C2NC(=O)/C(=C/C=C/c3ccco3)S2)c1 |  | inconclusive: 39.8 µM [inhibitor, partial curve]
12 | CCOc1ccccc1NC(=O)Cn1c(=O)ccc2cc(S(=O)(=O)N3CCCC3)ccc21 | inactive: 11% [at 57 µM] | 
13 | COc1ccc(S(=O)(=O)NCC2CCC(C(=O)NCC(OC)OC)CC2)cc1 (centres undefined) | inactive: 42.4% | 
14 | Cc1nc(-c2ccccc2)sc1C(=O)NN | inactive: 65.6% | 
15 | CCNC(=O)c1sc(=S)n(-c2ccc(C)cc2)c1N |  | inconclusive: 22.4 µM [inhibitor, partial curve, poor fit]
16 | COC(=O)C(C)Sc1nc2c(cnn2-c2ccc(C)cc2)c(=O)[nH]1 (centres undefined) |  | inconclusive: 28.2 µM [inhibitor, partial curve, poor fit]
17 | Cc1cc(C)c2c(=O)cc(C(F)F)oc2c1 |  | inconclusive: 89.1 µM [inhibitor, single point]
18 | CCOC(=O)c1c(-c2ccc(C)cc2)csc1NC(=O)c1nc(SC(C)C)ncc1Cl | inactive: -12.3% | 
19 | CN(C)c1oc(-c2ccc(Cl)cc2)nc1S(=O)(=O)c1ccccc1 |  | inconclusive: 89.1 µM [inhibitor, single point]
20 | S=C(NNc1ccnc2cc(Cl)ccc12)Nc1ccccc1Cl |  | inconclusive: 25.1 µM [inhibitor, partial curve, poor fit]
21 | S=C(c1ccc(-c2ccccc2Cl)o1)N1CCOCC1 |  | inconclusive: 14.1 µM [inhibitor, full curve, poor fit]
22 | O=C1CCN(C(=S)NCc2ccccc2)CC1 | inactive: 39.2% | 
23 | COc1cc(OC)cc(C(=O)Nc2ccc([N+](=O)[O-])cn2)c1 |  | inconclusive: 39.8 µM [inhibitor, single point]
24 | CCOC(=O)c1cc(-c2ccc(F)cc2)n(CC(=O)NC2CCCCCC2)c1C |  | inconclusive: 89.1 µM [inhibitor, partial curve, poor fit]
25 | CCCn1c(=O)n(C)c(=O)c2c(SCC(=O)NC34CC5CC(CC(C5)C3)C4)nc(CC(C)C)nc21 | inactive: 1.13% | 

Row | SMILES | activity change, negative = inhibition | Potency
26 | N#CC1(NC(=O)COc2ccc(S(=O)(=O)N3CCCC3)cc2[N+](=O)[O-])CCCCC1 | inactive: 0.913% | 
27 | COc1cccc(CSc2nc3ccccc3cc2C=O)c1 | inactive: 35.5% | 
28 | CC1CCCC(C)N1C(=O)COC(=O)/C=C/c1ccc(Br)o1 (centres undefined) |  | inconclusive: 50.1 µM [inhibitor, partial curve]
29 | CCOc1ccc2nc(N(Cc3ccccc3)C(=O)CCNC(C)=O)sc2c1 | inactive: 14.5% | 
30 | Nc1ccc(Nc2nc3ccccc3[nH]2)cc1 |  | inconclusive: 35.5 µM [inhibitor, partial curve]
31 | CC(C)(C)C(=O)NC(=S)Nc1ccccc1C(N)=O |  | inconclusive: 79.4 µM [inhibitor, single point]
32 | CCc1ccc(-c2cn(C3CCCCC3)c(=S)[nH]2)cc1 |  | inconclusive: 22.4 µM [inhibitor, full curve]
33 | CCN(CC)S(=O)(=O)c1cc(C(=O)Nc2ccccc2[N+](=O)[O-])ccc1Cl |  | inconclusive: 28.2 µM [inhibitor, full curve]
34 | CCCCOc1ccc(C2=NC(c3ccncc3)=Nc3ccc(OCC)cc3N2)cc1 |  | inconclusive: 25.1 µM [inhibitor, full curve]
35 | Cc1ccc2c(Cl)cc(Cl)c(O)c2n1 | inactive: 2.58% | 
36 | CC(CCc1ccccc1)NC(=O)Cc1ccc([N+](=O)[O-])cc1 (centres undefined) |  | inconclusive: 39.8 µM [inhibitor, single point]
37 | Oc1ccc(Cl)cc1CNCC1CCCO1 (centres undefined) |  | inconclusive: 44.7 µM [inhibitor, partial curve]
38 | COc1ccc(/C=N\NC(=O)c2cc(O)c(O)c(O)c2)cc1COc1ccc(C(=O)OCC(C)C)cc1 | inactive: -7.14% | 
39 | Cc1ccc(Nc2ccc(C(F)(F)F)cc2[N+](=O)[O-])cc1 |  | inconclusive: 12.6 µM [inhibitor, full curve, poor fit]
40 | CCC(=O)c1ccc(OCC(=O)OCC(=O)NCC2CCCCC2)cc1 |  | inconclusive: 89.1 µM [inhibitor, single point]
41 | Cc1ccc2[nH]c(=O)c(C(c3nnnn3CC3CCCO3)N3CCCc4ccccc43)cc2c1 (centres undefined) | inactive: -11.6% | 
42 | CCN(CC)c1ccc(NC(=S)NCC2CCCO2)cc1 (centres undefined) |  | inconclusive: 44.7 µM [inhibitor, partial curve]
43 | CCc1ccc(C(C)NC(=O)c2cc(C)oc2C)cc1 (centres undefined) |  | inconclusive: 89.1 µM [inhibitor, partial curve, poor fit]
44 | O=C(CN1CCCc2ccccc21)NCCc1ccc(Cl)cc1 |  | inconclusive: 39.8 µM [inhibitor, full curve]
45 | CCOc1cc(N2CCOCC2)c(OCC)cc1NC(=O)COC(=O)CCOc1ccc(C(C)(C)C)cc1 |  | inconclusive: 39.8 µM [inhibitor, partial curve]
46 | Cc1nnc(N=c2ssnc2Cl)o1 |  | inconclusive: 10 µM [inhibitor, full curve]
47 | CCOc1ccc(C(=O)c2cc([N+](=O)[O-])ccc2Cl)cc1 |  | inconclusive: 50.1 µM [inhibitor, single point]
48 | CN1C(=O)/C(=C2\SC(=S)N(CCCCCC(=O)O)C2=O)c2ccccc21 |  | active: 39.8 µM
49 | Brc1ccccc1OCCCN1CCCC1 |  | inconclusive: 20 µM [inhibitor, full curve]
50 | COc1ccc(C(=S)N2CCN(c3ccccc3Cl)CC2)cc1OC |  | inconclusive: 8.91 µM [inhibitor, full curve]

Row | SMILES | activity change, negative = inhibition | Potency
51 | COc1ccccc1NC(=O)c1nc[nH]c1C(=O)Nc1ccccc1OC |  | inconclusive: 35.5 µM [inhibitor, single point]
52 | COc1ccccc1N(CC(=O)NCc1ccco1)S(=O)(=O)c1ccc(C)cc1 |  | active: 44.7 µM
53 | CCOCCCNC(=O)CCNS(=O)(=O)c1ccc(C)cc1 | inactive: 32.2% | 
54 | COc1ccccc1OCC(=O)NCCSCc1ccccc1Cl |  | inconclusive: 39.8 µM [inhibitor, single point]
55 | CCc1nn(CC(=O)N2CCCCC2)c(=O)c2cc3sc(C)cc3n12 | inactive: 20.2% | 
56 | COc1cccc(-n2c(CNC(=O)OC(C)(C)C)n[nH]c2=S)c1 | inactive: 30% | 
57 | Cc1ccccc1NC(=O)/C(=C/c1ccco1)c1ccccc1 | inactive: 7.52% | 
58 | COc1cc(C(=S)N2CCCC2)ccc1OCc1ccccc1 | inactive: 54% | 
59 | Cn1c(C(=O)NCCc2c[nH]c3ccccc23)cc2sccc21 |  | inconclusive: 35.5 µM [inhibitor, partial curve]
60 | CN(Cc1ccccc1)C1CCN(Cc2ccccc2[N+](=O)[O-])CC1 |  | inconclusive: 15.8 µM [inhibitor, full curve, poor fit]
61 | COc1ccccc1C(=O)NNC(=O)c1cccc(C)c1 | inactive: -15.1% | 
62 | O=C(NC(=S)Nc1ccccc1N1CCCC1)c1ccco1 |  | inconclusive: 35.5 µM [inhibitor, partial curve]
63 | COc1ccc(C(=O)N=C2SC3CS(=O)(=O)CC3N2Cc2ccc(F)cc2)cc1 (centres undefined) | inactive: 27.2% | 
64 | CCOc1ccc(N(CC(=O)NC2CCCCC2)S(=O)(=O)c2ccccc2)cc1 | inactive: 12.2% | 
65 | COc1cccc(-c2nnc(NC(=O)Cc3cccs3)s2)c1 |  | inconclusive: 70.8 µM [inhibitor, single point]
66 | CCN(CC)C(=O)Cn1c(=O)cc(C)c2c(C)nn(-c3ccc(C)cc3)c21 |  | inconclusive: 89.1 µM [inhibitor, partial curve, poor fit]
67 | CCOC(=O)C1CCN(C2=NC(=O)/C(=C/c3ccc(Cl)cc3)S2)CC1 | inactive: 23.2% | 
68 | Cc1c(S(=O)(=O)c2ccccn2)c(N)n(Cc2ccccc2Cl)c1C | inactive: 9.85% | 
69 | COc1ccc(OC)c(S(=O)(=O)Nc2cccc(-c3ccc(N4CCCCC4)nn3)c2)c1 |  | inconclusive: 11.2 µM [inhibitor, partial curve]
70 | CN(C)CCCN1c2ccc3ccccc3c2Sc2cccc(Cl)c21 |  | inconclusive: 70.8 µM [inhibitor, partial curve]
71 | O=C(NC(=S)N1CCN(c2ccc(C(F)(F)F)cc2[N+](=O)[O-])CC1)c1cccs1 |  | inconclusive: 22.4 µM [inhibitor, full curve]
72 | CCOc1cc(/C=C(\C#N)C(=O)NCC2CCCO2)ccc1OCC(N)=O (centres undefined) | inactive: -16.4% | 
73 | Cc1ccc(OCCOCCN2CCCC2)c(Br)c1 |  | inconclusive: 12.6 µM [inhibitor, partial curve, poor fit]
74 | COc1ccc(S(=O)(=O)C(C#N)c2nc3ccccc3nc2N2CCCC(C)C2)cc1 (centres undefined) |  | inconclusive: 25.1 µM [inhibitor, partial curve, poor fit]
